{
  "source": "PubChem BioAssay AID2675",
  "about": "(National Center for Advancing Translational Sciences (NCATS), 2010)",
  "note": "Hit rate of the full screen: of about 280,000 compounds, about 100 (0.036%) were called active. This list was built around the results that the source calls inconclusive (neither active nor inactive); the mix of calls is not that of the screen. The call rests on the fitted dose curve; in most records, active means well fitted inhibition curve with a large enough effect in the signal ratio, with a control signal flat (not every such curve was filed as active); inconclusive means small, poorly fitted or top-dose-only effect, or effect the other way, or a change in a side signal; inactive means no such curve, though single readings can be large or run the other way; the % refers to the signal ratio. Potencies of inconclusive entries are doubtful fits and often do not repeat. “Side channel” marks fits to a control or component signal instead of the main read-out. On the % scale 0 is the no-effect control and ±100 the full control effect; potency means the concentration at half of the fitted maximal effect; tags describe the fitted curve by direction and shape or compound fluorescence and quenching.",
  "data": [
    {"biological_target": "Muscleblind-like protein 1 (Homo sapiens) (UniProt Q9NR56)", "sequence (Q9NR56 whole entry, looked up)": "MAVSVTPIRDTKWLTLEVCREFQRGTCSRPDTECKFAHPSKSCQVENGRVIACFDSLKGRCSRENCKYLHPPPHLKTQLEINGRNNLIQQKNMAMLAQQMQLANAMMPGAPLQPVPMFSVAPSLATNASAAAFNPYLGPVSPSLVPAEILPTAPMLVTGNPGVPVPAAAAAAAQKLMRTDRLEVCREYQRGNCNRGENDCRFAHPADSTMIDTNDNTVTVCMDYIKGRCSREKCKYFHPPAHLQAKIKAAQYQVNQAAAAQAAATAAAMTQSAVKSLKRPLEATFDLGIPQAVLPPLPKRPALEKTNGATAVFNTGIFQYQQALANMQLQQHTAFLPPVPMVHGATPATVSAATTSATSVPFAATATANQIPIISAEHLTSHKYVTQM", "assay": "qHTS Assay for Inhibitors of MBNL1-poly(CUG) RNA binding", "settings": "TR-FRET MBNL1-His/biotin-(CUG)12 binding, 665/545 ratio; activity change, negative = inhibition: at 57.5 µM (top of the series)", "how_it_was_run": "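TR-FRET readout: Ex 340 nm, 665/545 nm emission ratio, normalized to buffer-only (basal) and MBNL1-(CUG)12 controls. Complex of MBNL1-His with Biotin-(CUG)12, compounds 92 nM–58 uM, incubated 60 min at room temperature.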", "values": [
      {"compound": "Cc1ccc(S(=O)(=O)N2CN3CCN(C3)C2)cc1", "Potency": "inactive"},
      {"compound": "CN1CCN(c2cc(N3CCNCC3)ccc2[N+](=O)[O-])CC1", "Potency": "inconclusive: 25.1 µM [quencher, side channel, single point]"},
      {"compound": "COc1ccc(CC(=O)Nc2ccc3c(C(F)(F)F)cc(=O)oc3c2)cc1OC", "Potency": "inconclusive: 14.1 µM [quencher, side channel, partial curve]"},
      {"compound": "CC/C(=C\\C=C\\[C@@H]1C=C[C@@H]2CCC[C@H]2[C@@H]1C(=O)c1ccc[nH]1)[C@@H]1O[C@@H]([C@@H](C)C(=O)O)CC[C@@H]1C", "Potency": "inactive"},
      {"compound": "N#Cc1c(Cl)nc(Cl)c2c1CCN(Cc1ccccc1)C2", "Potency": "inconclusive: 2.82 µM [quencher, side channel, full curve, poor fit]"},
      {"compound": "CCn1cc(/C=c2/sc3n(c2=O)C2c4ccccc4OC(C)(N=3)C2C(=O)OC)c(C)n1", "note": "(stereo not drawn)", "Potency": "inconclusive: 11.2 µM [quencher, side channel, partial curve]"},
      {"compound": "O=[N+]([O-])c1ccc(N2CCCC2)c2ncccc12", "Potency": "inconclusive: 3.16 µM [quencher, side channel, full curve]"},
      {"compound": "O=C(NC1CN2CCC1CC2)c1cc(Cl)c([N+](=O)[O-])c2nc[nH]c12", "note": "(stereo not drawn)", "Potency": "inconclusive: 17.8 µM [quencher, partial curve]"},
      {"compound": "O=c1c2ccccc2nc(CN2CCCCCC2)n1-c1ccc(F)cc1", "Potency": "inactive"},
      {"compound": "O=C(O)c1cccc2c1NC(C(=O)O)C1CC(Sc3ccccc3[N+](=O)[O-])C(Cl)C21", "note": "(stereo not drawn)", "Potency": "inactive"},
      {"compound": "O=C1NC(=O)N(c2ccccc2)C(=O)/C1=C\\c1ccc([N+](=O)[O-])s1", "Potency": "inconclusive: 28.2 µM [quencher, side channel, partial curve]"},
      {"compound": "CC(C)NS(=O)(=O)c1ccc(OCC(=O)N2CCN(Cc3ccccc3)CC2)c(Cl)c1", "Potency": "inactive"},
      {"compound": "CCN1CCN(c2cc(N3CCCC3)c([N+](=O)[O-])cc2F)CC1", "Potency": "inconclusive: 39.8 µM [quencher, partial curve, poor fit]"},
      {"compound": "FC(F)(F)c1ccc2c(c1)ncn2C1CCN(Cc2nnnn2C2CCCCC2)CC1", "Potency": "inactive"},
      {"compound": "CN1CCN(C(=O)OC2c3nccnc3C(=O)N2c2ccc(Cl)cn2)CC1", "note": "(stereo not drawn)", "Potency": "inconclusive: 11.2 µM [quencher, side channel, partial curve]"},
      {"compound": "Cc1c(N=Nc2c(O)[nH]c(=O)[nH]c2=O)c(=O)n(-c2ccccc2)n1C", "Potency": "inconclusive: 17.8 µM [quencher, side channel, partial curve]"},
      {"compound": "C=CCn1c(O)c(/C=C2/C=CC=N2)c(=O)[nH]c1=O", "Potency": "inconclusive: 5.62 µM [quencher, side channel, full curve, poor fit]"},
      {"compound": "Cc1cccc(C)c1NC(=O)CN(C)CC(=O)Nc1ccc(C#N)c(Cl)c1", "Potency": "inactive"},
      {"compound": "CCOC(=O)c1c(NC(NC(=O)CF)C(Cl)(Cl)Cl)sc2c1CCCC2", "note": "(stereo not drawn)", "Potency": "inactive"},
      {"compound": "C=C1[C@@H](C)[C@H]2[C@H](Cc3ccccc3)NC(=O)[C@]23OC(=O)/C=C/[C@H](O)CCC[C@@H](C)C/C=C/[C@H]3[C@@H]1O", "Potency": "inactive"},
      {"compound": "O=C(NCc1ccccc1)C(=O)NCC1OCCN1S(=O)(=O)c1ccc([N+](=O)[O-])cc1", "note": "(stereo not drawn)", "Potency": "inconclusive: 12.6 µM [quencher, partial curve]"},
      {"compound": "Cn1cnc([N+](=O)[O-])c1Sc1ccc([N+](=O)[O-])cc1", "Potency": "inconclusive: 25.1 µM [quencher, side channel, partial curve]"},
      {"compound": "Clc1ccc2c(c1)C(c1ccccc1Cl)=NCc1nnc(N3CCN(CCSc4ccccc4)CC3)n1-2", "Potency": "inactive"},
      {"compound": "N#CCCn1cc(C(=O)Nc2ccccc2Cl)c(-c2ccc([N+](=O)[O-])cc2)n1", "Potency": "inactive"},
      {"compound": "O=C(CN1C(=O)CN=C(c2ccccc2)c2ccccc21)NCc1ccco1", "Potency": "inactive"},
      {"compound": "O=C1NC(=S)N(c2ccc(Br)cc2)C(=O)/C1=C/N1CCN(C(=O)c2ccco2)CC1", "Potency": "inactive"},
      {"compound": "O=S1(=O)CC2(N3CCOCC3)CCCCCCC21", "note": "(stereo not drawn)", "Potency": "inactive"},
      {"compound": "O=C1C(c2ccccc2)=C(N2CC2)c2ccccc21", "Potency": "inconclusive: 22.4 µM [quencher, side channel, partial curve, poor fit]"},
      {"compound": "CN(C(=O)COC(=O)c1ccc([N+](=O)[O-])cc1Cl)C1CCCCC1", "Potency": "inconclusive: 12.6 µM [quencher, partial curve]"},
      {"compound": "O=[N+]([O-])c1ccc(N2CCOCC2)c2cccnc12", "Potency": "inconclusive: 15.8 µM [quencher, partial curve]"},
      {"compound": "O=C(c1cc(F)ccc1F)C1CCCN(Cc2cc(Cl)ccc2O)C1", "note": "(stereo not drawn)", "Potency": "inactive"},
      {"compound": "C(CCc1nn[nH]n1)CCc1nn[nH]n1", "Potency": "inconclusive: 316 µM [inhibitor, partial curve, poor fit]"},
      {"compound": "COc1c2c(cc3c1OCO3)CC[N+](C)=C2", "Potency": "inconclusive: 11.2 µM [quencher, side channel, partial curve]"},
      {"compound": "COc1ccccc1N1C(=O)NC(=O)/C(=C/c2ccc3c4c(cccc24)CC3)C1=O", "activity change, negative = inhibition": "inconclusive: 29% [phenotype inactive]"},
      {"compound": "COc1ccc(Oc2cc(NC(=O)c3nn(C)cc3[N+](=O)[O-])cc([N+](=O)[O-])c2)cc1", "Potency": "inconclusive: 11.2 µM [quencher, partial curve, poor fit]"},
      {"compound": "CCOc1ccc(-c2cc(C)[n+](CCN(CC)CC)c(-c3ccc(OCC)cc3)c2)cc1", "Potency": "inconclusive: 28.2 µM [quencher, side channel, partial curve]"},
      {"compound": "O=C(c1ccc(N2CC3CC(C2)c2cccc(=O)n2C3)c([N+](=O)[O-])c1)N1CCCCC1", "note": "(stereo not drawn)", "Potency": "inconclusive: 2.24 µM [activator, partial curve, poor fit]"},
      {"compound": "CC1CCN(C(=O)c2ccc(N3CC4CC(C3)c3cccc(=O)n3C4)c([N+](=O)[O-])c2)CC1", "note": "(stereo not drawn)", "Potency": "inconclusive: 1 µM [quencher, side channel, full curve, poor fit]"},
      {"compound": "CC(NCc1ccc(Cl)c(Cl)c1)C(O)c1ccccc1", "note": "(stereo not drawn)", "Potency": "inactive"},
      {"compound": "C[n+]1c(-c2ccccc2)cc(-c2ccc(Cl)cc2)cc1-c1ccccc1", "Potency": "inconclusive: 25.1 µM [quencher, side channel, partial curve]"},
      {"compound": "CC(C)Cc1[nH]c(=O)c(C#N)c2c1CCC2", "Potency": "inactive"},
      {"compound": "Cc1cccc(C)c1NC1=NCCCS1", "Potency": "inactive"},
      {"compound": "COCCNC(=O)c1c(N)n(Cc2ccco2)c2nc3ccccc3nc12", "Potency": "inconclusive: 12.6 µM [quencher, side channel, partial curve]"},
      {"compound": "O=[N+]([O-])c1ccc(C2[C@H]3C(c4ccccc4)=NC4(CCCCC4)N23)cc1", "note": "(stereo partly drawn)", "Potency": "inconclusive: 12.6 µM [quencher, side channel, partial curve]"},
      {"compound": "O=P(Nc1ccccc1)(Oc1ccccc1)Oc1ccccc1", "Potency": "inactive"},
      {"compound": "O=C1NC(=O)C(Sc2ccccc2[N+](=O)[O-])C(=O)N1", "Potency": "inconclusive: 22.4 µM [quencher, side channel, single point]"},
      {"compound": "Cc1ccc(-c2cc(-c3ccc(C)cc3)[n+](C)o2)cc1", "activity change, negative = inhibition": "inactive: -2.27% [at 11.5 µM]"},
      {"compound": "O=C1NC(=O)N(c2ccc3c(c2)OCO3)C(=O)/C1=C/c1ccc(N2CCCC2)o1", "Potency": "inconclusive: 12.6 µM [quencher, side channel, partial curve]"},
      {"compound": "CC[C@@H](CO)NC(=O)[C@H]1C=C2c3cccc4c3c(cn4C)C[C@H]2N(C)C1", "Potency": "inconclusive: 20 µM [quencher, side channel, single point]"},
      {"compound": "CCC(C)N1C(=O)/C(=C/c2ccc3c(c2)CCN3CCCCl)C(=O)NC1=S", "note": "(stereo not drawn)", "Potency": "inconclusive: 39.8 µM [quencher, single point]"},
      {"compound": "O=C(Cc1ccccc1)N1CCN(CC2CC=CCC2)CC1", "note": "(stereo not drawn)", "Potency": "inactive"},
      {"compound": "COc1ccc(-c2nn(CCC#N)cc2C(=O)Nc2ccccc2Br)cc1[N+](=O)[O-]", "Potency": "inconclusive: 15.8 µM [quencher, side channel, single point]"},
      {"compound": "Cc1ccc2[nH]c3c(c2c1)CN(C(=O)CN1C[C@H]2C[C@@H](C1)c1cccc(=O)n1C2)CC3", "Potency": "inconclusive: 6.31 µM [fluorescent, side channel, single point]"},
      {"compound": "Cc1nn(Cc2ccccc2)c(Cl)c1C(=O)OCC(=O)Nc1cccc2ccccc12", "Potency": "inactive"},
      {"compound": "CC1CCCC(C)N1c1nnc(NC(=O)Cn2c(=O)oc3ccccc32)s1", "note": "(stereo not drawn)", "Potency": "inconclusive: 3.16 µM [quencher, side channel, partial curve]"},
      {"compound": "COc1ccc(N=Nc2c(O)[nH]c(=S)[nH]c2=O)cc1", "Potency": "inconclusive: 10 µM [quencher, side channel, partial curve]"},
      {"compound": "O=C(Nc1ccc(Cl)cc1)Nc1nccs1", "Potency": "inactive"},
      {"compound": "O=C1C(Cl)=C(N2CCCCCC2)C(=O)N1c1ccccc1", "Potency": "inconclusive: 17.8 µM [quencher, side channel, partial curve]"},
      {"compound": "O=C1NC(=O)N(c2ccccc2)C(=O)/C1=C/c1ccoc1", "Potency": "inactive"},
      {"compound": "Cc1ccc(S(=O)(=O)n2[nH]c(=O)cc2NC(=O)c2cccs2)cc1", "Potency": "inconclusive: 631 µM [inhibitor, partial curve]"},
      {"compound": "COCCCn1c(N)c(C(=O)OC(C)COC)c2nc3ccccc3nc21", "note": "(stereo not drawn)", "Potency": "inconclusive: 28.2 µM [quencher, side channel, single point]"},
      {"compound": "CN(C)c1ccc(C=C2C(=O)NC(=S)NC2=O)cc1[N+](=O)[O-]", "Potency": "inconclusive: 28.2 µM [quencher, side channel, partial curve]"},
      {"compound": "CN1C(=O)CC(c2ccccc2)Nc2ccccc21", "note": "(stereo not drawn)", "Potency": "inconclusive: 0.631 µM [fluorescent, side channel, full curve, poor fit]"}
    ]}
  ]
}
